# Source: the supplement of paper PMC10126150
# Values marked as one replicate rest on one cluster of the flow cell; about a third of the high ones do not repeat.
# Tested on: ATP
# Test: switch fluorescence ratio, 500 uM ATP over buffer (Cy3 cluster intensity, sum of 5 cycles each) (fold (ratio)); higher = stronger signal-on switching upon ATP binding; sequences stand for … in TCGTCGGCAGCGTCAGATGTGTATAAGAGACAGTTTTTTTTTTTTTTTTTTTTTTTTT…TC
# Settings: aptamer strand: ATP DNA aptamer (quencher-CACCTGGGGGAGTATTGCGGAGGAAGG + anchor), 100 nM annealed; ATP concentration: 500 uM; one replicate
# Summary of the method: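 Clusters carrying Cy3-labelled switching strands on a modified Illumina MiSeq flow-cell were annealed to 100 nM quencher-labelled ATP aptamer and imaged in selection buffer. They were imaged again after 15 min with 500 uM ATP at 22 °C, over five buffer/ATP cycles with NaOH stripping and re-annealing in between. For each cluster, the fluorescence ratio is the summed Cy3 intensity of the target cycles divided by that of the buffer cycles, averaged per switch-domain sequence. Clusters outside 100-1000 RFU were left out.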
# 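Also: ATP exposure 15 min at 22 °C before imaging.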
row,Sequence,switch fluorescence ratio
1,CGGCTTCTTG,1
2,CGGCTTGTGC,0.989
3,CGGGAAAAAC,1.06
4,CGGGAACAC,1.15
5,CGGGACCATT,1.03
6,CGGGACTCT,1.01
7,CGGGACTCTG,1.01
8,CGGGACTTGA,0.983
9,CGGGATAAGA,1.01
10,CGGGATCGAT,0.967
11,CGGGCCAGAC,1.26
12,CGGGCCATAA,1.02
13,CGGGCCTAGG,0.954
14,CGGGCCTGGG,1.01
15,CGGGCGCTAG,0.982
16,CGGGCGGGA,1.02
17,CGGGCGTATG,0.981
18,CGGGCGTGTC,0.964
19,CGGGCTAAAG,0.981
20,CGGGCTGTAA,0.999
21,CGGGGCGCTG,1.02
22,CGGGGCGGT,1
23,CGGGGCTATC,1.21
24,CGGGGGCAAC,1.32
25,CGGGGGTTCC,1.02
26,CGGGGGTTTA,1.08

row,Sequence,switch fluorescence ratio
1,CGGGGTCCTT,0.987
2,CGGGGTGCGC,0.921
3,CGGGGTTGAG,0.954
4,CGGGTACAT,0.995
5,CGGGTACCG,0.99
6,CGGGTGGAAG,1.02
7,CGGGTGTTC,1.04
8,CGGGTTGAAC,1.02
9,CGGGTTGTAT,1
10,CGGTAACCTG,1.01
11,CGGTAAGGAG,1
12,CGGTACAACG,1.03
13,CGGTACCCGT,0.987
14,CGGTACGAAA,1
15,CGGTACGTTC,0.956
16,CGGTAGAAGC,1.02
17,CGGTAGCAA,4.26
18,CGGTAGCATG,1.16
19,CGGTAGTGGC,0.959
20,CGGTATAACA,0.988
21,CGGTATATTA,0.971
22,CGGTATCATT,0.993
23,CGGTATGCGC,0.984
24,CGGTCATAAA,0.992
25,CGGTCATGTA,1.02
26,CGGTCATGTT,0.989

row,Sequence,switch fluorescence ratio
1,CGGTCCCAGG,6.84
2,CGGTCGTCTG,1.01
3,CGGTCGTGAG,1.04
4,CGGTCTAAGT,0.985
5,CGGTCTGTGT,0.992
6,CGGTGACCTC,1.02
7,CGGTGAGTGC,1.03
8,CGGTGAGTTA,0.965
9,CGGTGATTAC,1.3
10,CGGTGATTAG,1.01
11,CGGTGCGCGT,0.979
12,CGGTGGAAG,0.979
13,CGGTGTCGAA,1.01
14,CGGTGTCGG,1
15,CGGTGTGCAA,1.14
16,CGGTTAATAT,1.22
17,CGGTTCAATG,0.996
18,CGGTTCGCTC,1.01
19,CGGTTCTAGG,0.997
20,CGGTTGAACC,0.93
21,CGGTTGACTC,1.05
22,CGGTTGATAA,0.963
23,CGGTTGCAGT,0.966
24,CGGTTTATGT,0.994
25,CGGTTTCAT,0.959
26,CGGTTTTGAC,1.02

row,Sequence,switch fluorescence ratio
1,CGGTTTTGCT,0.974
2,CGTAAAAATT,0.989
3,CGTAAATCCC,1.06
4,CGTAATAGGA,1.56
5,CGTAATCTCT,1.07
6,CGTAATGTCA,0.986
7,CGTACAACGG,0.983
8,CGTACATAAA,0.991
9,CGTACCAAAC,2.06
10,CGTACCGCGC,1.45
11,CGTACGAGAT,1
12,CGTACGATTT,1.04
13,CGTACGGAC,1.7
14,CGTACTAGGG,0.995
15,CGTAGAAACA,1.02
16,CGTAGGGCAC,1.09
17,CGTAGTACAG,0.981
18,CGTAGTATCC,1.09
19,CGTAGTCAGG,1.1
20,CGTATAAAGA,0.962
21,CGTATACCT,0.984
22,CGTATCAATC,1.5
23,CGTATCTGGG,1
24,CGTATGAATT,1.01
25,CGTATGGATG,1.05
26,CGTATGGGTA,0.987

row,Sequence,switch fluorescence ratio
1,CGTATTCAAG,0.996
2,CGTATTGTCC,1.06
3,CGTATTTTCT,0.976
4,CGTCAAAATT,1.03
5,CGTCAATGAC,1.97
6,CGTCAGTATA,1.02
7,CGTCAGTCCT,1.03
8,CGTCATATAA,1.07
9,CGTCATTCAC,1.23
10,CGTCCAGTTT,1.09
11,CGTCCCAAGA,2.71
12,CGTCCGTCTC,1.13
13,CGTCGAGCCA,0.965
14,CGTCGGGTAC,1.73
15,CGTCGTAAGA,1.06
16,CGTCGTATTA,0.959
17,CGTCGTCGCG,1.03
18,CGTCTAAGTT,0.965
19,CGTCTAATAA,1.11
20,CGTCTACGGT,1
21,CGTCTAGCGA,1.08
22,CGTCTATAAT,1.07
23,CGTCTGTGGC,1.07
24,CGTCTTCCGT,0.975
25,CGTCTTTCTC,1
26,CGTGAAACGT,1.03

row,Sequence,switch fluorescence ratio
1,CGTGACTCTC,1.02
2,CGTGATAGGG,1.01
3,CGTGATGCGG,0.98
4,CGTGCACGTT,1
5,CGTGCATGCA,0.931
6,CGTGCATTTG,1.07
7,CGTGCGAGCG,0.943
8,CGTGCGGCCC,1.02
9,CGTGCGTCA,0.971
10,CGTGCGTCAC,1.07
11,CGTGCTAGGC,1.04
12,CGTGCTGCAG,1.02
13,CGTGCTTTCA,0.982
14,CGTGGAAGG,1.05
15,CGTGGACGGT,0.991
16,CGTGGCATTC,1.55
17,CGTGGTATGT,0.963
18,CGTGGTGCAG,0.958
19,CGTGGTGTAT,1.01
20,CGTGGTTTGG,1
21,CGTGTAAGTT,0.995
22,CGTGTAGGTG,0.998
23,CGTGTATTGC,1.03
